Source: PubChem BioAssay AID1159614 (National Center for Advancing Translational Sciences (NCATS), 2016)
Out of some 45,000 compounds screened, about 65 (0.1%) were called active. Calls come from the whole dose curve; as a rule, active = well fitted activation curve with a large enough effect; inconclusive = small, poorly fitted or top-dose-only effect; inactive = no such curve, though single readings can be large or run the other way. The list shows a part of the results.

molecular target: Galactocerebrosidase (Homo sapiens) (UniProt P54803); experiment: A Novel Cell-Based Assay to Identify Small Molecules for B -Galactocerebrosidase; conditions: 145M-Twi-hGALC-G270D cells (Twitcher mouse brain line with human GALC G270D), HMU-beta-Gal fluorescence, 48 h; series mostly up to 57.5 µM; activation: at the top concentration; note: 0% is about no effect; nearly all actives have a fitted effect of over 65% in size
In short: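 Fluorescence readout: HMU-β-gal cleavage by mutant GALC (0.1 mM final, citrate/phosphate pH 5.2 with 1 mg/mL taurocholate), stopped with carbonate/bicarbonate plus Triton X-100. Cells: murine Twitcher 145M-Twi expressing human G270D GALC; qHTS for activators.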

Sequence of UniProt P54803 (P54803 whole entry, looked up): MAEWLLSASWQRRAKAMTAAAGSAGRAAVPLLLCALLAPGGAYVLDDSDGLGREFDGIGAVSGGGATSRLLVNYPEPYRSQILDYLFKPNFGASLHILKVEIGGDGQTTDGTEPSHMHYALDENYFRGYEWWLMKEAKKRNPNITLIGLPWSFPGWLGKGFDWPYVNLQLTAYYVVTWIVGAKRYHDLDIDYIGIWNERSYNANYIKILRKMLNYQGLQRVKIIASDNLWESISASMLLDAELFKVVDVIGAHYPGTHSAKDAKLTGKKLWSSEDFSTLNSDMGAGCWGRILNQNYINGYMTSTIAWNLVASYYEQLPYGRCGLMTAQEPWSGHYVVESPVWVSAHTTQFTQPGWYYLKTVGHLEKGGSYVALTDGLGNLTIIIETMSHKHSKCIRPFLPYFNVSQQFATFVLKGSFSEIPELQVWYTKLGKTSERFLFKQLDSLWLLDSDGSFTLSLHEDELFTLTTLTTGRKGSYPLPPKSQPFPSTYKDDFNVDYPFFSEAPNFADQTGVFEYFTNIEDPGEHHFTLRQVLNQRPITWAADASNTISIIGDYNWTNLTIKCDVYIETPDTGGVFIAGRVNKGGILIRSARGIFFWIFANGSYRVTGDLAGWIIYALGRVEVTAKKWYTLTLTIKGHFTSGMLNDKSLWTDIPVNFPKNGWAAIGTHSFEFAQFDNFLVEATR

activation, inactive:
Cc1ccc(N2C(=O)CCSC23C(=O)N(Cc2ccccc2)c2ccccc23)cc1F (stereo not drawn) 1.04%
Cc1cc(C)cc(NS(=O)(=O)c2ccc3[nH]cc(C(=O)N(C)Cc4ccccc4)c(=O)c3c2)c1 -11.6%
O=C(NCc1ccc(F)cc1)c1cc2c(=O)n3ccccc3nc2s1 -12.6%
COc1ccc(OC)c(/C=C(/C#N)c2nc(-c3ccc(-c4ccccc4)cc3)cs2)c1 -22%
O=C(NCc1ccccc1)c1nn(-c2ccccc2)nc1CO -6.04%
Cc1ccc(CNC(=O)Cn2c(=O)n(-c3ccc(Cl)cc3)c(=O)c3c(C)c(C)sc32)cc1 -9.94%
Cc1ccccc1CN1C(=O)c2ccccc2Sc2ccc(C(=O)NC(C)c3ccccc3)cc21 (stereo not drawn) -14.1%
CCN1CCOC(=O)C1CC(=O)Nc1cc(C)cc(C)c1 (stereo not drawn) 2.77%
COc1ccccc1CNC(=O)c1ccc2c(c1)nc(C)n2-c1ccccc1OC -14.9%
Cc1nn2c(-c3ccco3)ccnc2c1-c1ccc(F)cc1 4.69%
CCCCNc1nc2c(S(=O)(=O)c3ccc(C)c(C)c3)nnn2c2ccsc12 -4.81%
Cc1c(-c2nc(-c3ccccc3)no2)nnn1-c1cccc(C(F)(F)F)c1 -14.7%
Cc1ccc(CSc2nc3c([nH]c4ccccc43)c(=O)n2C)cc1 -8.46%
COC(=O)c1ccccc1NC(=O)c1ccc2c(c1)CCN2S(C)(=O)=O -9.52%
COc1cc(Nc2ncc3c(n2)CCN(Cc2cc(Br)cs2)C3)cc(OC)c1 -14.6%
CCOc1ccccc1OCCN[C@H](C)Cc1ccc(OC)c(S(N)(=O)=O)c1 -17.3%
CCOc1ccc(NC(=O)Cn2c(C)cc3ccccc3c2=O)cc1 -9.02%
Cc1ccc(NC(=O)Cn2c(=O)n(CCCCC(=O)NCc3ccccc3Cl)c(=O)c3ccccc32)cc1C -3.14%
COc1ccccc1NC(=O)CN1CCCN(S(=O)(=O)c2ccc(Br)cc2)CC1 -18.9%
Cc1nc2ccccn2c(=O)c1NC(=O)c1ccc(C(F)(F)F)cc1 -11.6%
COc1ccc(NC(=O)c2cccn2-c2nnc(N3CCCCC3)s2)cc1Cl -22.3%
Cc1ccc(C)c(NC(=O)CSc2c3c(nc4ccc(Cl)cc24)CCCC3)c1 -7.91%
COc1cn(CC(=O)Nc2cccc(C)c2C)c(CN2CCCCC2)cc1=O -7.3%
CC1=C(C(=O)Nc2cccnc2)C(c2ccc(Cl)cc2)n2nc(-c3ccccc3)nc2N1 (stereo not drawn) -8.31%
COc1ccc(OC)c(S(=O)(=O)NCc2cccn2Cc2cccc(C)c2)c1 -11.2%
CCn1cc(C(=O)O)c(=O)c2cnc(N3CCCC3)nc21 -3.04% [at 11.5 µM]
COc1ccc(C(=O)Nc2cccc(OCc3cc(=O)n4c5c(sc4n3)CCCC5)c2)cc1 -6.96%
Cn1c(=O)c2c(nc3n(-c4ccc(O)cc4)c(-c4ccc(Br)cc4)cn23)n(C)c1=O -20.9%
COc1ccc(/C=C(\C#N)c2nc(-c3cc4c(ccc5ccccc54)oc3=O)cs2)cc1O -12.3%
Cc1ccc(C2=Nc3ccccc3N(CC(=O)NCc3ccc(F)cc3)C(=O)C2)cc1C -11.9%
O=C(O)c1ccc(-n2c(/C=C\c3ccc(O)cc3)nc3ccccc3c2=O)cc1 3.68%
CCOC(=O)c1ccccc1NC(=O)c1sc2ncn(Cc3cccc(F)c3)c(=O)c2c1C -7.92%
CCN1CCN(c2cc3c(cc2F)c(=O)c(S(=O)(=O)c2ccccc2)cn3C)CC1 -1.56%
CC(C)NC(=O)CCCN1C(=O)CCn2nc(-c3cccn3C)cc21 -8.32%
COc1ccccc1NC(=O)CSc1nc2ccccc2c2nc(-c3ccccc3)nn12 -9.47%
COc1cccc(C(=O)c2cn(CC(=O)NCc3ccccc3)c3nc(C)ccc3c2=O)c1 -24.6%
COc1ccc(OCc2nc3c4c(-c5ccccc5)c(-c5ccccc5)oc4ncn3n2)cc1 -4.35%
COc1ccc(CNC(=O)CSc2nc3ccccc3nc2Cc2ccccc2OC)cc1 9.17%
COC(=O)c1sc(NC(=O)/C=C/c2ccc(OC)c(OC)c2)c(C(=O)OC)c1C -14.7%
O=S(=O)(O)CCS -15%
CC1=C(C(=O)OCc2ccccc2)C(c2cccc(Cl)c2Cl)CC(=O)N1 (stereo not drawn) -8.58%
Cc1nn(C)c2c1c(C(F)(F)F)cc(=O)n2C(C)C(=O)NCc1ccc(Cl)cc1 (stereo not drawn) -22.1%
O=C(Nc1ccc(Br)cc1F)N1CCC(CN2CCCC2)CC1 -8.82%
CCOC(=O)c1ccc(NS(=O)(=O)c2cc(-c3onc(C)c3C)ccc2C)cc1 9.96%
Cc1cccc(CNC(=O)CSCc2cnn(-c3ccccc3)c2-n2cccc2)c1 -15%
Cc1[nH]c2ccccc2c1C1N2CC3(C)CN1CC(C)(C2)C3=O (stereo not drawn) 4.11%
CC1=C(c2ccc(C)cc2)S(=O)(=O)NC1=NCc1cccc(F)c1 -7.87%
CCN1C(=O)c2ccccc2S(=O)c2ccc(C(=O)N3CCN(c4cccc(C)c4)C(C)C3)cc21 (stereo not drawn) -13.2%
COc1cc(OC)c(C2Nc3c(C)cccc3-c3cc(C)nn32)cc1OC (stereo not drawn) -0.8%
CCc1ccccc1NC(=O)Cn1c2ncccc2c(=O)n1-c1ccccc1 -4.91%
COc1ccc(Cn2ccc3nc(C)c(C(=O)NCc4cccc(OC)c4)cc3c2=O)cc1 -15.5%
Cc1ccc(-n2nc3c(=O)n(CC(=O)NCC(C)c4ccccc4)nc(C)c3c2C)cc1 (stereo not drawn) -8.63%
CCOc1cc2sc(N3CCC(C(=O)Nc4cc(C)cc(C)c4)CC3)nc2cc1Br -26.1%
Cc1cc(=O)c2cc(C(=O)Nc3ccccc3C)ccc2[nH]1 -10.4%
CCOc1ccc(CNC(=O)CCCc2cn(C)c3ccccc23)cc1OC 7.54%
COC(=O)c1cc2sc(Cl)cc2n1Cc1cc(C)ccc1C -11.2%
CCn1cc2c(n1)-c1c(oc(C(=O)Nc3cccc(C(F)(F)F)c3)c1C)CC2 -18.7%
COc1ccccc1Cn1cc(C(=O)c2ccc(C)cc2)c(=O)c2cc3c(cc21)OCCO3 -9.82%
COC(=O)c1ccc(CSc2nnc3ccc4ccccc4n23)cc1 -10.7%
COc1cc(F)c(S(=O)(=O)Nc2c(C)n(C)n(-c3ccccc3)c2=O)cc1OC -17.3%
COc1ccccc1-c1noc(CCCC(=O)Nc2cc(C)ccc2C)n1 -15.7%
COc1ccc(C(=O)Nc2ccc(C(=O)OCc3cc(=O)n4nc(C5CC5)sc4n3)cc2)cc1 11.1%
O=C(CN1CCSc2ccccc21)N1CCN(c2ccc(F)cc2)CC1 -7.9%
